Results reported in PubChem BioAssay AID463173 (ICCB-Longwood Screening Facility, Harvard Medical School, 2010).
Out of some 52,000 compounds screened, about 1,700 (3.3%) were called active. Cut-off read from the data, not from the text of the source: active = survival mostly below about 52% (no sharp cut-off); inactive = mostly above about 56%. The list shows a part of the results.

Tested on: Wild type
Test: growth inhibition of S. aureus wild type versus tarO mutant, primary screen, teichoic acid synthesis inhibitors, RN4220, OD600 (AID 463173)
Conditions: S. aureus RN4220 wild type/DeltatarO growth, OD600, 18 h, stronger effect = lower value, screened at 18.75 µg/mL (by protocol)

| Compound | survival |
| --- | --- |
| COc1cccc(CNc2nc3c(-c4ccccc4)nnn3c3ccccc23)c1 | inactive: 141% |
| Cc1ccc2oc(=O)c3cnn(CC(=O)N4CCN(c5cc(Cl)ccc5C)CC4)c3c2c1 | inactive: 83% |
| CCOc1ccc(NC(=O)c2cc(S(=O)(=O)N3CCCCC3)c[nH]2)cc1 | inactive: 111% |
| CN(C)c1ccc(C(CC(=O)O)NC(=O)c2ccc(Cl)cc2)cc1 (stereo not given) | inactive: 93% |
| CCOc1ccc(CCNCc2c(C(=O)O)n(Cc3ccc(C)cc3)c3cc(OC)ccc23)cc1 | inactive: 48% |
| COc1cccc(NS(=O)(=O)c2ccc3[nH]cc(C(=O)NCCc4ccccc4)c(=O)c3c2)c1 | inactive: 85% |
| O=c1[nH]c(-c2ccc(S(=O)(=O)N3CCCC3)cc2)nc2sc3c(c12)CCCC3 | inactive: 115% |
| CN(Cc1ccccc1)C(=O)CSc1nc2ccsc2c(=O)n1-c1ccc(F)cc1 | inactive: 120% |
| COc1cccc(N2C(=O)N(Cc3ccc(C#N)cc3)c3ccccc3S2(=O)=O)c1 | inactive: 67% |
| CCn1cc(C(=O)NCCCN(CC(C)C)CC(C)C)c(=O)c2cc(S(=O)(=O)N(C)C3CCCCC3)ccc21 | inactive: 86% |
| COc1ccc(NC(=O)CCc2nnc3n(C)c(=O)c4sccc4n23)cc1Cl | inactive: 70% |
| CCc1ccccc1NC(=O)Cn1c(=O)n(CC2CCC(C(=O)NCCc3ccccc3)CC2)c(=O)c2ccccc21 (stereo not given) | inactive: 85% |
| O=S(=O)(c1ccccc1F)N1CCC(Oc2ccc(-n3cnnn3)cc2)CC1 | inactive: 79% |
| O=C(NCc1ccccc1Cl)c1cnc2sc(N3CCOCC3)nn2c1=O | inactive: 70% |
| CCC(=O)N1CCc2cc(Br)cc(S(=O)(=O)CCC(=O)Nc3ccc(C)c(C)c3)c21 | inactive: 47% |
| COc1ccc(-c2noc(-c3ccc(NCc4cccnc4)c([N+](=O)[O-])c3)n2)cc1 | inactive: 89% |
| COc1ccc(C2=NS(=O)(=O)N(C)C(C(=O)NCc3ccccc3)=C2)cc1OC | inactive: 102% |
| Cc1ccc(S(=O)(=O)c2nc(-c3ccccc3Cl)oc2N2CCCCCC2)cc1 | inactive: 20% |
| COc1ccc(-c2cc(C(=O)Nc3ccn(Cc4ccc(C)cc4)n3)no2)cc1OC | inactive: 83% |
| CCc1ccc(NC(=O)C(=O)NCC(c2ccc3c(c2)OCO3)N2CCOCC2)cc1 (stereo not given) | inactive: 77% |
| Cc1ccc(Cl)c(NC(=O)Nc2csc3c2CCCC3)c1 | inactive: 84% |
| CCS(=O)(=O)N1CCC(n2c(C)nc3cccnc32)CC1 | inactive: 63% |
| COc1cc2oc(=O)c(CC(=O)N3CCCCC3)c(C)c2cc1OC | inactive: 87% |
| CN1C(=O)c2ccccc2Sc2ccc(NC(=O)COc3ccccc3)cc21 | inactive: 83% |
| Cc1ccccc1OCc1nnc(SCC(=O)N(C)C)n1-c1ccccc1 | inactive: 109% |
| CCOC(=O)c1nc(N2CCN(c3ccc(F)cc3)CC2)c2c(C)noc2n1 | active: 14% |
| COc1ccc(C(=O)/C=C/c2cn(CC(O)CN(CC(C)C)CC(C)C)c3ccccc23)cc1 (stereo not given) | inactive: 44% |
| C=CCNC(=O)CSc1ccc(C)cc1 | inactive: 107% |

| Compound | survival |
| --- | --- |
| COc1cccc(C(=O)Nc2ccc(-c3nc4ccccc4s3)cc2Cl)c1 | inactive: 68% |
| CCn1c(=O)n(-c2ccc(F)c(Cl)c2)c(=O)c2c3c(sc21)CN(C(C)=O)CC3 | inactive: 125% |
| Cc1ccc(C)c(CSc2cn(CC(=O)N3CCCCCC3)c3ccccc23)c1 | inactive: 90% |
| COc1cccc(N2C(=O)CSC23C(=O)N(Cc2ccccc2)c2ccccc23)c1 (stereo not given) | inactive: 69% |
| COCCNC(=O)c1ccc(-n2c(-c3ccccc3)cc3c2CCCCC3)cc1 | inactive: 132% |
| COc1ccc(NC(=O)CCCc2nnc3n(CCC(C)C)c(=O)c4sccc4n23)c(OC)c1 | inactive: 96% |
| COc1ccc(-c2csc3nc(-c4ccc(F)cc4)oc(=O)c23)cc1 | inactive: 70% |
| COc1ccc(OCC2Cn3c(nc4c3c(=O)n(C)c(=O)n4C)O2)cc1 (stereo not given) | inactive: 100% |
| COc1cccc(Cn2c(CNC(=O)Cc3cccc(C)c3)nc3cccnc32)c1 | inactive: 75% |
| COc1ccc(C2=C(C)C(=NCCCN3CCN(c4cc(C)ccc4C)CC3)NS2(=O)=O)cc1 | inactive: 84% |
| COc1ccc(N(CC(=O)Nc2cccc(Cl)c2C)S(=O)(=O)c2c(C)nn(C)c2C)cc1 | inactive: 82% |
| Cc1ccc(NC(=O)c2cccc3c2C(=O)N(C2CCCCC2)C3)c(C)c1 | inactive: 121% |
| CC(C)N(C(=O)CSc1nnc(NC(=O)c2ccco2)s1)C(C)C | inactive: 95% |
| COc1ccccc1-c1nc2c(c(SCC(=O)Nc3ccc(C)c(C)c3)n1)Cc1c(CO)cnc(C)c1O2 | inactive: 53% |
| O=C(c1cc2c(s1)-c1ccccc1OC2)N1CCN(c2ccccc2F)CC1 | inactive: 53% |
| Cc1c(C)n(C)c2ccc(C(=O)NCCCN3CCCCC3C)cc12 (stereo not given) | inactive: 136% |
| Cc1cc(C)c2[nH]c(=O)c(CN(CCN3CCOCC3)C(=O)Nc3ccc(F)cc3)cc2c1 | inactive: 97% |
| CCc1c(C)sc(NC(=O)c2cc(-c3cccc(Cl)c3)on2)c1C#N | inactive: 110% |
| CCOC(=O)C1CCCN(c2cc(C)nc3c(-c4ccccc4OC)c(C)nn23)C1 (stereo not given) | inactive: 74% |
| CCCCN(CC)CCCNC(=O)c1nn(C)c2c1CS(=O)(=O)c1ccccc1-2 | inactive: 85% |
| Cc1ccc(C)c(NC(=O)Cn2cc(C(=O)c3ccco3)c3ccccc32)c1 | inactive: 72% |
| CCCCCOc1c(Cl)cc(C(=O)N(Cc2ccc(C)o2)C2CCS(=O)(=O)C2)cc1Cl (stereo not given) | inactive: 91% |
| CCCN(CCC)CCCNC(=O)C1CCN(S(=O)(=O)CC)CC1 | inactive: 120% |
| COc1ccc(C)c2sc(N(Cc3cccnc3)C(=O)C3CCCCC3)nc12 | inactive: 51% |
| CCCn1cc(S(=O)(=O)c2ccccc2)c(=O)c2cc(F)c(N3CCCC(C)C3)cc21 (stereo not given) | inactive: 71% |
| COc1ccc(C)cc1NC(=O)c1c(C)oc2ncn(CC(C)C)c(=O)c12 | inactive: 55% |
| CCOC(=O)c1ccc(N2C(=O)c3n[nH]c(-c4ccco4)c3C2c2ccc(O)cc2)cc1 (stereo not given) | inactive: 67% |
